Laboratory results from article PMC12146697.
Results are given in words; binding and its absence hold for the method and conditions named. For some assays here: Binding seen in cells or lysates may run through a third protein. Some binding calls cover weakened binding; strength is not graded here. Tags and fused reporters may be left off the sequences shown.

Sequences of proteins named here, by UniProt entry; tags and fusion partners are left off. A change or cut given only in a name is not applied to a line headed by its entry.
UniProt P20340: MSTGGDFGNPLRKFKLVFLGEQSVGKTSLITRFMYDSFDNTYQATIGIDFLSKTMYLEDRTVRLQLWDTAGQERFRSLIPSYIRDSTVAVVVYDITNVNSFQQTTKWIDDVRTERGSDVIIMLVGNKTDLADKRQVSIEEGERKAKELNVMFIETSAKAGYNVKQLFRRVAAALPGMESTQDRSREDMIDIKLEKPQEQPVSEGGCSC
UniProt P61026: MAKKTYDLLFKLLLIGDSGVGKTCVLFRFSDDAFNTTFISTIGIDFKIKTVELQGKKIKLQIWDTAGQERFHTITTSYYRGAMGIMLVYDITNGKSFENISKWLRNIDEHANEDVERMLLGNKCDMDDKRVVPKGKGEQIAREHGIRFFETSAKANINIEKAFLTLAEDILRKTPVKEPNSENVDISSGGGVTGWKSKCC
UniProt P50516: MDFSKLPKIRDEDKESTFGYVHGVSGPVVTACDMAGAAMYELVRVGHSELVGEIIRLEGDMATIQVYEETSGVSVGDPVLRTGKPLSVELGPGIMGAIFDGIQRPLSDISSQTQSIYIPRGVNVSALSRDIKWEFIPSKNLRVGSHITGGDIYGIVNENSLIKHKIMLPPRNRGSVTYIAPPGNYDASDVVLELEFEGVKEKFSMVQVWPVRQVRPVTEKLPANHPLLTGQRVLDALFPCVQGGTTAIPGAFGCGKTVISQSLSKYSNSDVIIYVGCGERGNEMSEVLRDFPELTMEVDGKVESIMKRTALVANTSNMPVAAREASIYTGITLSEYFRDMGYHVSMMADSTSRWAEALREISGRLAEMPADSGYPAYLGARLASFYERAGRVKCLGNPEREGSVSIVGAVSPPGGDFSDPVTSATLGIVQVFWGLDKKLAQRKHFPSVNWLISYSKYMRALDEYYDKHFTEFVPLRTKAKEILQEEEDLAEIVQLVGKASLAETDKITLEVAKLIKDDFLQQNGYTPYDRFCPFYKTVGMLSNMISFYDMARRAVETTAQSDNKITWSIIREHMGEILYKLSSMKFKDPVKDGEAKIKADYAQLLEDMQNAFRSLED
UniProt Q9WTT4: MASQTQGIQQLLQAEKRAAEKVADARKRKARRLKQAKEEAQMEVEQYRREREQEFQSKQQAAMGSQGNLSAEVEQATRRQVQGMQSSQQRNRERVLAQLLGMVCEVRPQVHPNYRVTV

Tests used:
[1] = molecular target: T1, GST-Oxr1 full-length (FL) (Mus musculus) (UniProt Q4KMM3); assay: pull-down; 10 ug GST-fused Oxr1 protein on glutathione-Sepharose, mouse brain lysed in RIPA buffer (to dissociate the V-ATPase subunits) and diluted 1:50 in NL100, 1 mg protein, 1 h, 4 °C; immunoblot for V1 subunits; only the target purified
T1 sequence: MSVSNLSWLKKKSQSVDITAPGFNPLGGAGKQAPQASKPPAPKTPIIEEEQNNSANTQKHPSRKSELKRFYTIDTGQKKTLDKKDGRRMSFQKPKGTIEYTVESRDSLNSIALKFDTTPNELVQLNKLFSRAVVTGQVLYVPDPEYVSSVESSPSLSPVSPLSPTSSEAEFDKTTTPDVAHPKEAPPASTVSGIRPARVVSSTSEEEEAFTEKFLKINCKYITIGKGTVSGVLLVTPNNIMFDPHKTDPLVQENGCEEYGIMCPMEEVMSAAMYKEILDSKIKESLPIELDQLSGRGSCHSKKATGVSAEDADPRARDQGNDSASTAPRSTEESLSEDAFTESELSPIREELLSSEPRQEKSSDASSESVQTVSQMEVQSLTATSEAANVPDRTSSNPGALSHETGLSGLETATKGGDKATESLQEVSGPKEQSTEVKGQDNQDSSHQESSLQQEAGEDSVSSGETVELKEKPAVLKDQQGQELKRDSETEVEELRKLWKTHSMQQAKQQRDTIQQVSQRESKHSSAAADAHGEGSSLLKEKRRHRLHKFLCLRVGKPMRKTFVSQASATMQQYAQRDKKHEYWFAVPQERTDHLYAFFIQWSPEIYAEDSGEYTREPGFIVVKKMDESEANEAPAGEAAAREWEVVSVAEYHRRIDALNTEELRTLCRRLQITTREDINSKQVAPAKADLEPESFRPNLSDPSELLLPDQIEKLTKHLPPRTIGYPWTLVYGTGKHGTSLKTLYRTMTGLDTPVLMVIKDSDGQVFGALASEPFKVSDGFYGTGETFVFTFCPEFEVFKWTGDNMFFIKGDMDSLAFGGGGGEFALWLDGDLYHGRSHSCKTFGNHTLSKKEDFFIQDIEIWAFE

[2] = molecular target: T2, GST-Oxr1-TLDc (Mus musculus) (UniProt Q4KMM3); assay: as above
T2 sequence: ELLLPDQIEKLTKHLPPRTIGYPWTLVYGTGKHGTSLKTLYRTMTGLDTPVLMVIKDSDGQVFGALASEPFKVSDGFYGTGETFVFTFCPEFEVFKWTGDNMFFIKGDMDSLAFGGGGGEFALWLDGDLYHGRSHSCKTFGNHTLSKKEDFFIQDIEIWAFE

[3] = molecular target: GST-fused GDP-bound Rab6a T27N (UniProt P20340); assay: pull-down; 1 ug His6-tagged Oxr1 with 5 ug immobilised GST-fused Rab6 (GDP-loaded T27N, GTP-loaded Q72A or GTP-loaded WT) in NL100 buffer, 1 h, 4 °C; immunoblot with anti-Oxr1; both purified
[4] = molecular target: GST-fused GTP-bound Rab6a WT (UniProt P20340); assay: as above
[5] = molecular target: GST-fused GTP-bound Rab6a Q72A (UniProt P20340); assay: as above
[6] = molecular target: Rab10 WT (Gal4-BD, pFBT9) (UniProt P61026); assay: two-hybrid; Gal4-AD (pACT2-Oxr1) with Gal4-BD (pFBT9-Rab) in strain PJ96-4A; growth on SC-LW and QDO, 3 d, 30 °C
[7] = molecular target: T3, Rab19b WT (Gal4-BD, pFBT9) (UniProt A4D1S5); assay: as above
T3 sequence: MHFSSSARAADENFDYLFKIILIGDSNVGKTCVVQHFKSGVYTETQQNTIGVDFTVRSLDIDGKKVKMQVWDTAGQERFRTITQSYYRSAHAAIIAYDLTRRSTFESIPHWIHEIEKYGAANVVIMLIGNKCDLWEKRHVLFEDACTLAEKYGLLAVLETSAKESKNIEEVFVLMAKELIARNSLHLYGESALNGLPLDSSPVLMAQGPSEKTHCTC

[8] = molecular target: Rab6 WT (Gal4-BD, pFBT9) (UniProt P20340); assay: as above
[9] = molecular target: T4, Rab43 WT (Gal4-BD, pFBT9) (UniProt Q86YS6); assay: as above
T4 sequence: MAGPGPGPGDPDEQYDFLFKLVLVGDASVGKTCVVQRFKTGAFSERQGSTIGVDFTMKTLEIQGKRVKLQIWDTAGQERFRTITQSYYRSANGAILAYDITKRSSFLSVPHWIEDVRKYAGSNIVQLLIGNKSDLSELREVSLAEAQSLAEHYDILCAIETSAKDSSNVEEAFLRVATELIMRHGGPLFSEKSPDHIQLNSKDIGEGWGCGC

[10] = molecular target: T5, Rab39a WT (Gal4-BD, pFBT9) (UniProt Q14964); assay: as above
T5 sequence: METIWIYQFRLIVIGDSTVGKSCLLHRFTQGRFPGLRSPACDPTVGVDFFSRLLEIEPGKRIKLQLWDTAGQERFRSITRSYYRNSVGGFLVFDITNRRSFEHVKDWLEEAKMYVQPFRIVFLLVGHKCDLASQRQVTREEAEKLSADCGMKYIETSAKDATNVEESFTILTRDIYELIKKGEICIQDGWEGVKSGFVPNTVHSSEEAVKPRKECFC

[11] = molecular target: FLAG-tagged ATP6V1A (Mus musculus) (UniProt P50516); assay: pull-down; FLAG-ATP6V1A on FLAG M2 agarose, nucleotide-free (washed with NE500: 500 mM NaCl, 20 mM EDTA), incubated with GST-TLDc proteins in NL100, 1 h, 4 °C; immunoblot with anti-GST; both purified
[12] = molecular target: FLAG-tagged ATP6V1A (Mus musculus) (UniProt P50516); assay: pull-down; FLAG-ATP6V1A on FLAG M2 agarose, stripped of nucleotide, incubated with GST-TLDc proteins in NL100 with 100 uM AMP-PNP, 1 h, 4 °C; immunoblot with anti-GST; both purified
[13] = molecular target: FLAG-tagged ATP6V1A (Mus musculus) (UniProt P50516); assay: pull-down; FLAG-ATP6V1A on FLAG M2 agarose, stripped of nucleotide, incubated with GST-TLDc proteins in NL100 with 100 uM ADP, 1 h, 4 °C; immunoblot with anti-GST; both purified

ATP6V1G2 (endogenous, mouse brain) (from UniProt Q9WTT4 1-118)
binding [1]: no binding

ATP6V1A (endogenous, mouse brain) (from UniProt P50516 1-617)
binding [1]: binds
binding [2]: binds

B1: His6-tagged Oxr1 (full-length) (protein, UniProt Q4KMM3-1 1-866)
chain: T1 sequence
binding [3]: no binding
binding [4]: binds
binding [5]: binds

B2: Gal4-AD Oxr1 (pACT2-Oxr1) (protein, UniProt Q4KMM3-1 1-866)
chain: T1 sequence
binding [6]: binds weakly
binding [7]: binds weakly
binding [8]: binds weakly
binding [9]: binds weakly
binding [10]: binds weakly

B3: GST-Oxr1-TLDc (domain or fragment, UniProt Q4KMM3-1 705-866)
chain: T2 sequence
binding [11]: no binding (condition: nucleotide-free ATP6V1A)
binding [12]: binds
binding [13]: no binding (condition: ATP6V1A loaded with 100 µM ADP)

B4: GST-Ncoa7 TLDc (domain or fragment, UniProt Q6DFV7-1 782-943)
chain: ALLENMHIEQLARRLPARVQGYPWRLAYSTLEHGTSLKTLYRKSASLDSPVLLVIKDMDNQIFGAYATHPFKFSDHYYGTGETFLYTFSPNFKVFKWSGENSYFINGDISSLELGGGGGRFGLWLDADLYHGRSNSCSTFNNDILSKKEDFIVQDLEVWTFE
binding [11]: no binding (condition: nucleotide-free ATP6V1A)
binding [12]: binds
binding [13]: no binding (condition: ATP6V1A loaded with 100 µM ADP)
